About 1,700 (3.3%) of roughly 52,000 compounds were called active. Rule as the data show it: active = survival mostly below about 52% (no sharp cut-off); inactive = mostly above about 56%. This is one part of the list.

The assay deals with Wild type. The experiment in a line: S. aureus survival, RN4220 and DeltatarO strains – OD600, teichoic acid synthesis inhibitors, primary screen (AID 463173). The following applies: S. aureus RN4220 wild type/DeltatarO growth, OD600, 18 h, stronger effect = lower value, screened at 18.75 µg/mL (by protocol).
As for `Cc1ccc(Cl)cc1NC(=O)c1cc(-c2ccc3c(c2)OCCO3)on1`, the survival was inactive: 67%.
For `Cc1cc(C)c(NC(=O)CN2C(=O)CCn3nc(-c4cccn4C)cc32)c(C)c1`, the survival was inactive: 67%.
As for `Cc1ccc(-n2ncc(C(=O)NCCCN3CCN(C)CC3)c2C2CCN(C(=O)OC(C)(C)C)CC2)cc1`, the survival is inactive: 72%.
To `Cc1ccccc1CN1c2ccccc2-c2nc(SCC(=O)Nc3cc(F)ccc3F)ncc2S1(=O)=O` belongs inactive: 85%; to `CCCCNc1cc(N2CCN(C3CCCCC3)CC2)c2noc3c2c1C(=O)c1ccccc1-3`, active: -1%.
In the case of `CCCCC(=O)N1CCN(c2nc3c(C)c(C)ccc3s2)CC1` it was inactive: 64%.
In the case of `O=C(NCC1CCCO1)C1CC(=O)N(c2ccccc2)C1` (configuration not stated) it was inactive: 123%; in that of `Cc1cc(C)c(NC(=O)CSc2cn(CC(=O)N3CCOCC3)c3ccccc23)c(C)c1`, inactive: 103%; in that of `CCOc1ccc(NC(=O)c2oc3ccccc3c2NC(=O)Cc2cccs2)cc1`, inactive: 78%.
As for `CCN1CCN(C(=O)c2ccc3c(c2)N(Cc2ccc(Cl)cc2)C(=O)c2ccccc2S3=O)CC1` (configuration not stated), the survival is inactive: 84%.
In the case of `CCc1ccc(Cn2c(CNS(=O)(=O)c3ccc4c(c3)CCCC4)nc3cccnc32)cc1` it was inactive: 66%; in that of `COc1cccc(Cn2c(=O)n(CC3CCC(C(=O)N4CCOCC4)CC3)c(=O)c3sccc32)c1` (configuration not stated), inactive: 135%.
In the case of `Cc1oc2ncn(CC(C)C)c(=O)c2c1C(=O)NCCCN1CCCCC1C` (configuration not stated) it was inactive: 72%.
In the case of `Cc1cc(C)c2c(n1)SCC(=O)N2CC(=O)Nc1cccc(C)c1C` it was inactive: 76%; in that of `CCc1ccc2c(c1)c(=O)c(C(=O)c1ccc(C)cc1)cn2CC(=O)Nc1ccccc1C`, inactive: 71%.
For `O=C(NC1CCCCC1)C(c1ccco1)N(Cc1cccs1)C(=O)C(F)(F)F` (configuration not stated), the survival was inactive: 103%.
For `CCc1ccc2c(c1)c(=O)c(C(=O)c1ccccc1)cn2CC(=O)Nc1ccc(C)c(Cl)c1`, the survival was inactive: 75%.
As to `COc1ccc(-c2nnc(SCC(=O)NCCc3ccccc3)nc2-c2ccc(OC)cc2)cc1`, the survival is inactive: 70%.
To `Cc1cccc(C)c1OCC(=O)Nc1c(C(=O)c2ccccc2)oc2ccccc12` belongs inactive: 70%; to `CCc1ccccc1NC(=O)c1ncoc1-c1ccco1`, inactive: 89%.
To `COc1ccc(-c2c(C)nn3c(-c4ccccc4)cc(-c4ccccc4)nc23)cc1` belongs inactive: 122%; to `Cc1ccc(NC(=O)CSc2nc3nccnc3c(=O)n2CCc2c[nH]c3ccccc23)c(C)c1`, inactive: 78%; to `CCc1ccc(C(=O)c2cn(CC(=O)Nc3ccc(OC)cc3)c3cc4c(cc3c2=O)OCCO4)cc1`, inactive: 89%.
In the case of `C=CCN1C(=O)C(C(=O)O)C(=O)c2ccccc21` (configuration not stated) it was inactive: 74%; in that of `O=C(Nc1ccc(OC(F)(F)F)cc1)C(NS(=O)(=O)c1cccc2nsnc12)c1ccccc1` (configuration not stated), inactive: 62%.
Regarding `Cc1cc(SCC(=O)Nc2ccc(C(F)(F)F)cc2)nc(=O)[nH]1`, the survival is inactive: 70%.
In the case of `Cc1ccc(C)c(N2CCN(C(=O)c3cccn4c(=O)c5ccccc5nc34)CC2)c1` it was inactive: 85%; in that of `CCCCOC(=O)c1ccc(NC(=O)c2cc(=O)c3ccccc3o2)cc1`, inactive: 93%; in that of `CCOc1ccc(NC(=O)c2ncn(-c3ccccc3)n2)cc1`, inactive: 91%.
In the case of `CCn1nnc(NC(=O)C(C)(c2ccccc2)c2ccccc2)n1` it was inactive: 109%; in that of `Cc1ccc(-c2nnn3c2nc(N2CCC(C)CC2)c2ccccc23)cc1`, active: -2%; in that of `Cc1cnc2c(c1)N1CCC2CC1`, inactive: 108%.
In the case of `Cc1ccc(OCCSc2nc3ccccc3n2CC(=O)NC(C)C)cc1` it was inactive: 94%; in that of `O=C1CSC2(C(=O)N(Cc3c(F)cccc3Cl)c3ccccc32)N1c1ccc(F)c(F)c1` (configuration not stated), inactive: 83%; in that of `O=C(CSc1ncc2c(n1)-c1cc(Cl)ccc1N(Cc1ccccc1)S2(=O)=O)NCc1ccccc1`, inactive: 70%.
For `Fc1ccc(Nc2c(-c3c[nH]c4ccccc34)nc3ccccn23)cc1`, the survival was inactive: 72%.
In the case of `Cc1ccc(C(=O)Nc2nnc(S(=O)(=O)N3CCCc4ccccc43)s2)cc1` it was inactive: 36%; in that of `CCOc1ccc(S(=O)(=O)NCCc2csc3nc(-c4cccc(C)c4)nn23)cc1`, inactive: 77%; in that of `COCCCNC(=O)C1CCN(C(=O)c2cc3sccc3n2Cc2ccc(Cl)cc2)CC1`, inactive: 74%.
To `Cc1cccc(CSc2ccc3nnc(CCNS(=O)(=O)c4ccccc4)n3n2)c1` belongs inactive: 79%; to `COc1ccc(CCNC(=O)c2ccc(CSCc3ccc(C)cc3)o2)cc1OC`, inactive: 75%.
As for `COc1ccc(C(=O)Nc2ccc3nc(N4CCCCC4)cc(C)c3c2)cc1OC`, the survival was inactive: 62%.
To `Cc1nc2c(C(=O)NCCc3ccccc3)c[nH]n2c(=O)c1Cc1ccccc1F` belongs active: -15%; to `COc1cccc(C(=O)Nc2ccc(C(=O)OCc3cc(=O)n4cc(C)sc4n3)cc2)c1`, inactive: 53%; to `O=S(=O)(c1ccc(Cl)cc1)N1CCC(c2ccncc2)CC1`, inactive: 80%.
To `O=C(Nc1nnc(S(=O)(=O)N2CCOCC2)s1)c1cccc(Br)c1` belongs inactive: 51%; to `NC(=O)Cn1c(-c2nonc2N)nc2ccccc21`, inactive: 109%.
To `COc1cc(NS(=O)(=O)c2cc3c(cc2C)n(C)c(=O)c(=O)n3C)cc(OC)c1` belongs inactive: 54%.
With `CCC(Sc1ccc2nnc(CCNS(=O)(=O)c3ccc(OC)cc3)n2n1)C(=O)OC` (configuration not stated), the survival is inactive: 84%.
In the case of `Cc1ccc(-c2cc3ncc4c(n3n2)-c2ccccc2OC4)cc1` it was inactive: 76%; in that of `COc1cc(NC(=O)NCCn2nnc3cc(S(=O)(=O)N(C)C)ccc32)cc(OC)c1OC`, inactive: 56%; in that of `COc1cc(NC(=O)c2cc3cc4ccc(OC)c(Cl)c4nc3s2)cc(OC)c1`, inactive: 73%.
For the compound `O=C(OCc1ccc(Cl)cc1Cl)c1ccncc1`, the survival was inactive: 107%.
In the case of `C=CCN1C(=O)C2(C(C#N)=C(N)Oc3n[nH]c(COC)c32)c2ccccc21` (configuration not stated) it was inactive: 118%.
To `Cc1nc2ccc(S(=O)(=O)NCC(=O)Nc3ccc(C)c(Cl)c3)cc2s1` belongs inactive: 50%; to `Cc1cc(C)cc(NC(=O)CSc2nc3c(cnn3-c3ccc(F)cc3)c(=O)[nH]2)c1`, inactive: 65%.
As to `COc1ccc(-c2nc3c4ccccc4n(CC(=O)Nc4ccc(C(C)=O)cc4)c(=O)n3n2)cc1`, the survival was inactive: 83%.
